Measured values reported in a collection of fitness landscapes (doi:10.1016/j.celrep.2020.107928).
Over roughly 81,000 sequences, “one-hybrid fitness for binding NBS DNA” has its median near -0.1; the highest 2% begin near 0.36. The list shows a part of the results.

B1: Caulobacter ParB omega fusion; a variant is named by its letters at X, in order, B8GW30 (parent)
chain: MESVVVGEPGMSEGRRGLGRGLSALLGEVDAAPAQAPGEQLGGSREAPIEILQRNPDQPRRTFREEDLEDLSNSIREKGVLQPILVRPSPDTAGEYQIVAGERAWRAAQRAGLKTVPIMVRELDDLAVLEIGIIENVQRADLNVLEEALSYKVLMEKFERTQENIAQTIGKSXSHVANXMRLLXLPDEVQSYLVSGELTAXHARAIAAAADPVALAKQIIEGGLSVRETEALARKAPNLSAGKSKGGRPPRVKDTDTQALESDLSSVLGLDVSIDHRGSTGTLTITYATLEQLDDLCNRLTRGI

Variants of: B1
Test: one-hybrid fitness for binding NBS DNA (the Noc-binding site; scaled: cognate 1, non-cognate 0); higher = stronger binding
Details: with NBS DNA site
Method in brief: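 Fitness here means the log change in variant-to-wild-type read ratio between plasmids sequenced before and after selection. That scale was set so cognate equals 1 and non-cognate equals 0. The selection was a bacterial one-hybrid screen of Caulobacter ParB libraries, four specificity codons randomised, in E. coli USO carrying a HIS3 reporter with the site 19 bp from the promoter, grown 48 hours at 37°C on M9-minus-histidine with 0.1 mM IPTG and 5 mM 3-AT.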

| Variant | one-hybrid fitness for binding NBS DNA |
| --- | --- |
| WSCD | ≤ 0.2 |
| NGRW | ≤ 0.2 |
| EKRG | ≤ 0.2 |
| WDGG | ≤ 0.2 |
| NEFG | ≤ 0.2 |
| LSPI | ≤ 0.2 |
| MWPS | ≤ 0.2 |
| VNLI | ≤ 0.2 |
| YYSR | ≤ 0.2 |
| TYSR | ≤ 0.2 |
| HGCC | ≤ 0.2 |
| NPPV | 0.289 |
| WMGT | ≤ 0.2 |
| DQNS | ≤ 0.2 |
| GWIT | ≤ 0.2 |
| HHTG | ≤ 0.2 |
| AWTR | ≤ 0.2 |
| QVCS | 0.311 |
| KTMA | ≤ 0.2 |
| TVGC | ≤ 0.2 |
| SDYH | ≤ 0.2 |
| QYCR | 0.462 |
| SKHT | ≤ 0.2 |
| PRDG | ≤ 0.2 |
| GKWW | ≤ 0.2 |
| DREA | ≤ 0.2 |

| Variant | one-hybrid fitness for binding NBS DNA |
| --- | --- |
| TFKK | ≤ 0.2 |
| NVQV | ≤ 0.2 |
| KATH | ≤ 0.2 |
| FYQV | ≤ 0.2 |
| YNGG | ≤ 0.2 |
| KYAD | ≤ 0.2 |
| MNRC | ≤ 0.2 |
| KVTF | ≤ 0.2 |
| REYV | ≤ 0.2 |
| RMKH | 0.402 |
| QVVI | ≤ 0.2 |
| FRKL | ≤ 0.2 |
| KHHS | ≤ 0.2 |
| SAEG | ≤ 0.2 |
| PLNW | ≤ 0.2 |
| DFHS | ≤ 0.2 |
| HKGR | ≤ 0.2 |
| PQAV | ≤ 0.2 |
| HMFC | ≤ 0.2 |
| WTYT | ≤ 0.2 |
| NRIC | ≤ 0.2 |
| QNSA | ≤ 0.2 |
| PDCL | ≤ 0.2 |
| ACSS | ≤ 0.2 |
| YILG | ≤ 0.2 |
| KMKL | 0.274 |

| Variant | one-hybrid fitness for binding NBS DNA |
| --- | --- |
| MTRT | ≤ 0.2 |
| YMDS | ≤ 0.2 |
| LKQM | ≤ 0.2 |
| EGDT | ≤ 0.2 |
| KSLW | ≤ 0.2 |
| MPRA | ≤ 0.2 |
| VSTA | ≤ 0.2 |
| QLVP | ≤ 0.2 |
| KGLS | ≤ 0.2 |
| TNFS | ≤ 0.2 |
| AHAT | ≤ 0.2 |
| YGTS | ≤ 0.2 |
| TGRA | ≤ 0.2 |
| CRTQ | ≤ 0.2 |
| MTPR | ≤ 0.2 |
| IITS | ≤ 0.2 |
| DMHS | ≤ 0.2 |
| TGQV | ≤ 0.2 |
| VAHC | ≤ 0.2 |
| QIHY | ≤ 0.2 |
| ARHY | ≤ 0.2 |
| NMAG | ≤ 0.2 |
| YELI | ≤ 0.2 |
| SVED | ≤ 0.2 |
| GWPF | ≤ 0.2 |
| KHSY | ≤ 0.2 |

| Variant | one-hybrid fitness for binding NBS DNA |
| --- | --- |
| RLTH | ≤ 0.2 |
| AFKR | ≤ 0.2 |
| HEGL | ≤ 0.2 |
| GQSN | ≤ 0.2 |
| WYKG | ≤ 0.2 |
| DSYS | ≤ 0.2 |
| SRMK | ≤ 0.2 |
| SISY | ≤ 0.2 |
| DILC | ≤ 0.2 |
| NTMI | ≤ 0.2 |
| RICD | ≤ 0.2 |
| YSEG | ≤ 0.2 |
| HQSW | ≤ 0.2 |
| QQGR | 0.672 |
| SDMD | ≤ 0.2 |
| RSWH | ≤ 0.2 |
| VHLN | ≤ 0.2 |
| LFIY | ≤ 0.2 |
| TRLM | ≤ 0.2 |
| QMHR | 0.647 |
| SISL | ≤ 0.2 |
| TQNR | ≤ 0.2 |
| NPKL | ≤ 0.2 |
| RFND | ≤ 0.2 |
| SIWG | ≤ 0.2 |
| PARF | ≤ 0.2 |

| Variant | one-hybrid fitness for binding NBS DNA |
| --- | --- |
| LVFF | ≤ 0.2 |
| HKSC | ≤ 0.2 |
| TPIM | ≤ 0.2 |
| GPVM | ≤ 0.2 |
| KTVG | ≤ 0.2 |
| ERES | ≤ 0.2 |
| RRVS | 0.605 |
| QNDK | ≤ 0.2 |
| RGQM | ≤ 0.2 |
| TLKM | ≤ 0.2 |
| YEPS | ≤ 0.2 |
| SSYW | ≤ 0.2 |
| MNNS | ≤ 0.2 |
| HTRH | ≤ 0.2 |
| YVHS | ≤ 0.2 |
| TGSR | ≤ 0.2 |
| ADKT | ≤ 0.2 |
| AISG | ≤ 0.2 |
| NHRL | ≤ 0.2 |
| RQGM | ≤ 0.2 |
| NATC | ≤ 0.2 |
| RLTS | 0.396 |
| PEAV | ≤ 0.2 |
| MPVR | ≤ 0.2 |
| CSMS | ≤ 0.2 |
| RWYL | ≤ 0.2 |

| Variant | one-hybrid fitness for binding NBS DNA |
| --- | --- |
| TCGF | ≤ 0.2 |
| LHPW | ≤ 0.2 |
| TTRS | ≤ 0.2 |
| ETDI | ≤ 0.2 |
| HVIP | ≤ 0.2 |
| NGKF | ≤ 0.2 |
| AVAD | ≤ 0.2 |
| YHYC | ≤ 0.2 |
| WTMC | ≤ 0.2 |
| HIPQ | ≤ 0.2 |
| VFAT | ≤ 0.2 |
| TCDT | ≤ 0.2 |
| TSLD | ≤ 0.2 |
| QKYI | ≤ 0.2 |
| VDYF | ≤ 0.2 |
| TKEM | ≤ 0.2 |
| RVQA | ≤ 0.2 |
| HIMR | ≤ 0.2 |
| WKIG | ≤ 0.2 |
| YKQR | ≤ 0.2 |
| WASS | ≤ 0.2 |
| GRNL | ≤ 0.2 |
| TRES | ≤ 0.2 |
